Structures can show the parent of a compound that is named as a salt. ± gives the standard deviation of the averaged measurements. The list shows a part of the results. Single values are uncertain, as repeats are few or missing.
system: Escherichia coli W3110; test: planktonic growth (OD600) relative to untreated control; higher = more growth; conditions: 10 µM; 20-24 h; 30 °C; TB
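Also: stationary (unshaken) cultures in 96-well plates, started at OD600 0.05 from mid-exponential cells, with compounds supplied from DMSO stocks.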

Compound | planktonic growth
CCCCCCNC(=O)n1cc(F)c(=O)[nH]c1=O [Carmofur] | 80%
CC#C[C@]1(O)CC[C@H]2[C@@H]3CCC4=CC(=O)CCC4=C3[C@@H](c3ccc(N(C)C)cc3)C[C@@]21C [Mifepristone] | 94%
Nc1nc(=O)n([C@@H]2CS[C@H](CO)O2)cc1F [(-)-Emtricitabine] | 94%
COc1ccc(Cl)cc1C(=O)NCCc1ccc(S(=O)(=O)NC(=O)NC2CCCCC2)cc1 [Glibenclamide] | 101%
CCN(CC)CCOCCOC(=O)C1(c2ccccc2)CCCC1 [Carbetapentane citrate] | 91%
CCN(CC)C(=O)C1(c2ccccc2)CC1CN (stereo unspecified) [Milnacipran hydrochloride] | 98%
Cc1cc(C(C)(C)C)cc(C)c1CC1=NCCN1 [Xylometazoline hydrochloride] | 94%
CCN(CCCCOC(=O)c1ccc(OC)c(OC)c1)C(C)Cc1ccc(OC)cc1 (stereo unspecified) [Mebeverine hydrochloride] | 94%
O=P(O)(O)C(O)(Cn1ccnc1)P(=O)(O)O [Zoledronic acid hydrate] | 103%
COc1cc2nc(N3CCN(C(=O)C4COc5ccccc5O4)CC3)nc(N)c2cc1OC (stereo unspecified) [Doxazosin mesylate] | 92%
CCN(CC)C(=O)Nc1ccc(OCC(O)CNC(C)(C)C)c(C(C)=O)c1 (stereo unspecified) [Celiprolol hydrochloride] | 95%
N[C@H]1CONC1=O [(S)-(-)-Cycloserine] | 97%
CCCCC1C(=O)N(c2ccccc2)N(c2ccc(O)cc2)C1=O (stereo unspecified) [Oxyphenbutazone] | 102%
CCOC(=O)/C=C(C)/C=C/C=C(C)/C=C/c1c(C)cc(OC)c(C)c1C [Etretinate] | 99%
NC[C@H]1O[C@H](O[C@H]2[C@H](O)[C@@H](O[C@H]3O[C@H](CO)[C@@H](O)[C@H](N)[C@H]3O)[C@H](N)C[C@@H]2N)[C@H](N)C[C@@H]1O [Tobramycin] | 21%
C=CCOc1ccccc1OCC(O)CNC(C)C (stereo unspecified) [Oxprenolol hydrochloride] | 92%
Cc1c(N)c(=O)n(-c2ccccc2)n1C [Ampyrone] | 99%
CN[C@H]1CC[C@@H](c2ccc(Cl)c(Cl)c2)c2ccccc21 [Sertraline] | 87%
C[C@@H]1CCC[C@H](C)N1NC(=O)c1ccc(Cl)c(S(N)(=O)=O)c1 [Clopamide] | 99%
CC[C@H]1OC(=O)[C@H](C)[C@@H](O[C@H]2C[C@@](C)(OC)[C@@H](O)[C@H](C)O2)[C@H](C)[C@@H](O[C@@H]2O[C@H](C)C[C@H](N(C)C)[C@H]2O)[C@](C)(O)C[C@@H](C)CN(C)[C@H](C)[C@@H](O)[C@]1(C)O [Azithromycin] | 23%
Cc1ccc(-c2cc(C(F)(F)F)nn2-c2ccc(S(N)(=O)=O)cc2)cc1 [Celecoxib] | 97%
CC(CNC1CCCCC1)OC(=O)c1ccccc1 (stereo unspecified) [Hexylcaine hydrochloride] | 91%
Nc1ccc(S(=O)(=O)Nc2nccs2)cc1 [Sulfathiazole] | 54%
CNCC(O)c1ccc(O)c(O)c1 (stereo unspecified) [Racepinephrine hydrochloride] | 91%
CCOC1O[C@H]([C@@H](COCc2ccccc2)OCc2ccccc2)[C@H](OCc2ccccc2)[C@H]1O (stereo partly specified) [Tribenoside] | 98%
CC(=O)Nc1c(I)c(C(=O)N[C@H]2C(O)O[C@H](CO)[C@@H](O)[C@@H]2O)c(I)c(N(C)C(C)=O)c1I (stereo partly specified) [Metrizamide] | 90%

Compound | planktonic growth
CCN(CC)CCNC(=O)c1ccc(N)cc1 [Procainamide hydrochloride] | 92%
CCCCOc1cc(C(=O)OCCN(CC)CC)ccc1N [Benoxinate hydrochloride] | 94%
Clc1ccc2nsnc2c1NC1=NCCN1 [Tizanidine hydrochloride] | 110%
CC(C)Oc1ccc2c(=O)c(-c3ccccc3)coc2c1 [Ipriflavone] | 94%
Cc1cc2cc3c(C)cc(=O)oc3c(C)c2o1 [Trioxsalen] | 94%
CC(=O)Nc1nnc(S(N)(=O)=O)s1 [Acetazolamide] | 100%
CO/N=C(\C(=O)N[C@@H]1C(=O)N2C(C(=O)O)=C(COC(C)=O)CS[C@H]12)c1csc(N)n1 [Cefotaxime sodium salt] | 17%
C[C@]12CC[C@@H]3c4ccc(O)cc4C[C@@H](CCCCCCCCC[S+]([O-])CCCC(F)(F)C(F)(F)F)[C@H]3[C@@H]1CC[C@@H]2O (stereo partly specified) [Fulvestrant] | 113%
O=c1[nH]c(=O)n([C@H]2C[C@H](O)[C@@H](CO)O2)cc1I [Idoxuridine] | 87%
Cc1cccc(N(C)C(=S)Oc2ccc3ccccc3c2)c1 [Tolnaftate] | 101%
O=C(O)c1cccnc1 [Niacin] | 106%
CCN1CCCC1CNC(=O)c1cc(S(N)(=O)=O)ccc1OC (stereo unspecified) [Sulpiride] | 93%
COc1ccc(-c2ccc3cc(C(=O)O)ccc3c2)cc1C12CC3CC(CC(C3)C1)C2 [Adapalene] | 104%
NNC(=O)c1ccncc1 [Isoniazid] | 113%
CC1(C)O[C@@H]2C[C@H]3[C@@H]4C[C@H](F)C5=CC(=O)CC[C@]5(C)[C@H]4[C@@H](O)C[C@]3(C)[C@]2(C(=O)CO)O1 [Flurandrenolide] | 114%
CCC[C@@H]1C[C@@H](C(=O)N[C@@H]([C@H]2O[C@H](SC)[C@H](O)[C@@H](O)[C@H]2O)[C@@H](C)O)N(C)C1 [Lincomycin hydrochloride] | 96%
CCN(CC)CCN[C@@H](C(=O)OCCC(C)C)c1ccccc1 [Camylofine chlorhydrate] | 99%
CN1CCCN=C1/C=C/c1cccs1 [Pyrantel tartrate] | 98%
CC12CC3CC(C)(C1)CC(N)(C3)C2 [Memantine Hydrochloride] | 95%
O=C(Nc1ccc([N+](=O)[O-])cc1Cl)c1cc(Cl)ccc1O [Niclosamide] | 94%
CCOc1ccc(Cc2nccc3cc(OCC)c(OCC)cc23)cc1OCC [Ethaverine hydrochloride] | 99%
C#C[C@]1(O)CC[C@H]2[C@@H]3CCC4=Cc5oncc5C[C@]4(C)[C@H]3CC[C@@]21C [Danazol] | 96%
CC(CN(C)C)CN1c2ccccc2CCc2ccccc21 (stereo unspecified) [Trimipramine maleate salt] | 110%
CC(C)NCC(O)COc1cccc2[nH]ccc12 (stereo unspecified) [Pindolol] | 115%
OC(CCN1CCCC1)(c1ccccc1)C1CCCCC1 (stereo unspecified) [Procyclidine hydrochloride] | 99%
CC(C)C(=O)c1c(C(C)C)nn2ccccc12 [Ibudilast] | 95%

Compound | planktonic growth
Nc1nc(N)c2nc(-c3ccccc3)c(N)nc2n1 [Triamterene] | 95%
CC(C)(C)NC(=O)[C@H]1CC[C@H]2[C@@H]3CC[C@H]4NC(=O)C=C[C@]4(C)[C@H]3CC[C@]12C [Finasteride] | 97%
Cn1nnc2c(C(N)=O)ncn2c1=O [Temozolomide] | 96%
CC(C)(C)CC(C)(C)c1ccc(OCCOCC[N+](C)(C)Cc2ccccc2)cc1 [Benzethonium chloride] | 76%
CCCCOc1ccc(C(=O)CCN2CCCCC2)cc1 [Dyclonine hydrochloride] | 91%
CC[C@H](c1ccc(O)cc1)[C@@H](CC)c1ccc(O)cc1 [Hexestrol] | 91%
Cc1c(Nc2ncccc2C(=O)O)cccc1C(F)(F)F [Flunixin meglumine] | 95%
NCCc1ccc(O)c(O)c1 [Dopamine hydrochloride] | 101%
C[C@H](CS)C(=O)N1CCC[C@H]1C(=O)O [Captopril] | 94%
CN(Cc1cc(Br)cc(Br)c1N)C1CCCCC1 [Bromhexine hydrochloride] | 91%
CC1(C)O[C@@H]2C[C@H]3[C@@H]4C[C@H](F)C5=CC(=O)C=C[C@]5(C)[C@H]4[C@@H](O)C[C@]3(C)[C@]2(C(=O)CO)O1 [Flunisolide] | 112 ± 2.8%
CCCc1nn(C)c2c(=O)[nH]c(-c3cc(S(=O)(=O)N4CCN(C)CC4)ccc3OCC)nc12 [Sildenafil] | 110%
CC(=O)Oc1ccc(C(c2ccc(OC(C)=O)cc2)c2ccccn2)cc1 [Bisacodyl] | 72%
CCC(C)(C)C(=O)O[C@H]1C[C@@H](C)C=C2C=C[C@H](C)[C@H](CC[C@@H]3C[C@@H](O)CC(=O)O3)[C@H]21 [Simvastatin] | 93%
CCc1nn(CCCN2CCN(c3cccc(Cl)c3)CC2)c(=O)n1CCOc1ccccc1 [Nefazodone hydrochloride] | 101%
C[N+](C)(CCOc1ccccc1)Cc1ccccc1.O=C([O-])c1cc2ccccc2cc1O [Bephenium hydroxynaphthoate] | 95%
CC(NCCc1ccc(O)cc1)C(O)c1ccc(O)cc1 (stereo unspecified) [Ritodrine hydrochloride] | 97%
NC1CCN(c2c(F)cc3c(=O)c(C(=O)O)cn(C4CC4)c3c2Cl)C1 (stereo unspecified) [Clinafloxacin] | 25%
CCC1(C)CC(=O)NC1=O (stereo unspecified) [Ethosuximide] | 101%
CCCNC(C)(C)COC(=O)c1ccccc1 [Meprylcaine hydrochloride] | 92%
CCC(=O)O[C@]1(C(=O)SCF)[C@H](C)C[C@H]2[C@@H]3C[C@H](F)C4=CC(=O)C=C[C@]4(C)[C@@]3(F)[C@@H](O)C[C@@]21C [Fluticasone propionate] | 95%
Nc1ccc(/N=N/c2ccccc2)c(N)n1 [Phenazopyridine hydrochloride] | 101%
CN(C)CCOC(=O)C(c1ccccc1)C1(O)CCCC1 (stereo unspecified) [Cyclopentolate hydrochloride] | 89%
Nc1nc(/C(=C/CC(=O)O)C(=O)N[C@@H]2C(=O)N3C(C(=O)O)=CCS[C@H]23)cs1 [Ceftibuten] | 43%
